# Results taken from PubChem BioAssay AID938 (National Center for Advancing Translational Sciences (NCATS), 2007).
# “And” between values parts separate entries of the source, which are not always exact repeats. Equal entries are not always repeated. Out of some 73,000 compounds screened, about 1,800 (2.5%) were called active. Inconclusive results, whose numbers are uncertain, are shown with a selection of clear calls. The call rests on the fitted dose curve; in most records, active means well fitted activation curve with a large enough effect; inconclusive means small, poorly fitted or top-dose-only effect; inactive means no such curve, though single readings can be large or run the other way. Potencies of inconclusive entries are doubtful fits and often do not repeat.
# Test: qHTS Assay for Agonists of the Thyroid Stimulating Hormone Receptor: Activators of Intracellular cAMP Concentrations in Parental HEK 293; further: nearly all actives have a fitted effect of over 55% in size; on activation: % of control where 0% means no effect
# Settings: parental HEK293 CNG cAMP sensor, membrane potential fluorescence; activation: at 57.1 µM (top of the series)
# Summary of the method: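 Parental HEK 293 cells stably expressing a modified CNG channel (no TSHR) report cAMP rise as membrane depolarization. Membrane potential dye with 100 uM RO 20-1724 was loaded for 60 min at room temperature, then compound added for 30 min; fluorescence read at 590 nm.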
# Potency means the concentration at half of the fitted maximal effect; tags describe the fitted curve by direction and shape.
SMILES,Potency,activation
CC(C)[C@@]1(NC(=O)[C@@H]2C[C@H]3c4cccc5[nH]cc(c45)C[C@@H]3N(C)C2)O[C@]2(O)[C@H]3CCCN3C(=O)CN2C1=O,inactive,–
COc1ccccc1-n1c(O)c(C=NCc2ccc3c(c2)OCO3)c(=O)[nH]c1=O,"inconclusive: 20 µM [activator, partial curve]",–
S=C(c1ccc(Cl)cc1)N1CCOCC1,"inconclusive: 39.8 µM [activator, single point]",–
C=C(C)CN1CC[C@@]23c4c5ccc(O)c4O[C@H]2c2[nH]c4ccccc4c2C[C@]3(O)[C@@H]1C5,inactive,–
COc1ccc2c(c1OC)CN1CCc3cc4c(cc3[C@H]1C2)OCO4,inactive,–
Cc1c(OCC(F)(F)F)ccnc1CS(=O)c1nc2ccccc2[nH]1 (stereo not given),"inconclusive: 0.126 µM [activator, single point]",–
COc1cc(Cn2c(=O)oc3ccc(C)cc32)ccc1OC(C)C,"inconclusive: 12.6 µM [activator, partial curve]",–
CC(C)(c1ccc(OCC2CO2)cc1)c1ccc(OCC2CO2)cc1 (stereo not given),"inconclusive: 39.8 µM [activator, single point]",–
O=C1OCCN1P(=O)(c1ccccc1)c1ccccc1,inactive,–
COc1cc2c(cc1OC)[C@H](C)NCC2,"inconclusive: 15.8 µM [activator, single point]",–
COC(=O)N(c1ccc(OC)cc1)P1(=S)OCCC(C)O1 (stereo not given),"inconclusive: 6.31 µM [activator, single point]",–
NNC(N)=O,"inconclusive: 3.98 µM [activator, single point]",–
CCC(=O)N1CC(=O)Nc2ccc(Cl)cc2C1c1ccc(F)cc1 (stereo not given),"inconclusive: 20 µM [activator, partial curve]",–
COc1ccc(C=O)cc1,–,inconclusive: 41.3% [activator]
COc1ccc(Cc2nccc3cc(OC)c(OC)cc23)cc1OC,"inconclusive: 5.01 µM [activator, full curve, poor fit] and inconclusive: 12.6 µM [activator, partial curve]",–
CC(COc1ccccc1)N(CCCl)Cc1ccccc1 (stereo not given),"inconclusive: 0.0631 µM [activator, full curve, poor fit]",–
CC=O,"inconclusive: 39.8 µM [activator, single point]",–
O=C(NCc1nnc(SCC(=O)N2CCN(c3ccccc3)CC2)o1)c1ccco1,"inconclusive: 3.16 µM [activator, single point]",–
Oc1ccc2c3c1O[C@@H]1c4[nH]c5c(c4C[C@@]4(O)[C@@H](C2)N(CC2CC2)CC[C@]314)C[C@]1(O)[C@@H]2Cc3ccc(O)c4c3[C@@]1(CCN2CC1CC1)[C@H]5O4,"inconclusive: 3.98 µM [activator, partial curve]",–
N[C@@H]1CCc2cc(O)c(O)cc2C1,inactive,–

SMILES,Potency,activation
O=c1[nH]c(=O)n(CCC2=CCCCC2)c(O)c1C=NC1CCN(Cc2ccccc2)CC1,"inconclusive: 15.8 µM [activator, partial curve]",–
CCCCn1c(CN2CCN(c3ccc(F)cc3)CC2)nc2c1c(=O)n(C)c(=O)n2C,"inconclusive: 6.31 µM [activator, single point]",–
C[C@]12N[C@H](Cc3ccccc31)c1ccccc12,"inconclusive: 39.8 µM [activator, single point]",–
O=C(O)C[C@H]1NCc2cc3ccccc3nc21,–,inactive: 16.1% [at 11.4 µM]
COc1cc([C@@H](O)CN)ccc1O,inactive,–
C[C@@]12CC[C@H](O)C[C@@H]1CC[C@H]1[C@H]2C[C@@H](O)[C@]2(C)[C@@H](C3=CC(=O)OC3)CC[C@@]12O,inactive,–
Cc1[nH]c2ccccc2c1C1=CCNCC1,inactive,–
O=C(O)CN1C(=O)CC(Cc2ccc(Cl)cc2)C1=O (stereo not given),"inconclusive: 6.31 µM [activator, single point]",–
O=C(O)c1cc(N=Nc2ccc([As](=O)(O)O)cc2)ccc1O,–,inactive: -1.31% [at 11.4 µM]
CC(C)n1cnc2c(C(=O)N[C@H]3CN4CCC3CC4)cc(Cl)cc21,"inconclusive: 10 µM [activator, partial curve, poor fit]",–
NC(=NCCC[C@@H](N)C(=O)O)N[N+](=O)[O-],"inconclusive: 3.98 µM [activator, single point]",–
Oc1cc(Cl)c(Cl)c(Cl)c1,inactive,–
CC(C)CC(C)Nc1ccc(Nc2ccccc2)cc1 (stereo not given),inactive,–
CC(C)(C)c1ccc(O)c(CN2CCN(c3ccccc3)CC2)c1,"inconclusive: 1 µM [activator, full curve]",–
CN(N=O)c1cc(O)ccc1O,inactive,–
CCOC(=O)CC(SP(=O)(OC)OC)C(=O)OCC (stereo not given),"inconclusive: 0.0794 µM [activator, full curve, poor fit]",–
c1ccc(-c2nnc(SCc3nc4ccccc4[nH]3)o2)cc1,"inconclusive: 5.01 µM [activator, full curve]",–
COC(=O)c1cc(COc2cc(C)cc3oc(=O)c4c(c23)CCC4)c(C)o1,"inconclusive: 3.98 µM [activator, single point]",–
Cn1ncnc2c(=O)n(C)c(=O)nc1-2,"inconclusive: 25.1 µM [activator, single point]",–
N[C@H](CCCCCP(=O)(O)O)C(=O)O,"inconclusive: 0.1 µM [activator, full curve, poor fit]",–
